Experimental data from a collection of fitness landscapes (doi:10.1016/j.celrep.2020.107928).
In all, about 81,000 sequences were measured (“one-hybrid fitness for binding parS DNA”: median about -0.17, highest 2% from about 0.51 on). This is one part of the list.

B1: Caulobacter ParB omega fusion; a variant is named by its letters at X, in order, B8GW30 (parent)
chain: MESVVVGEPGMSEGRRGLGRGLSALLGEVDAAPAQAPGEQLGGSREAPIEILQRNPDQPRRTFREEDLEDLSNSIREKGVLQPILVRPSPDTAGEYQIVAGERAWRAAQRAGLKTVPIMVRELDDLAVLEIGIIENVQRADLNVLEEALSYKVLMEKFERTQENIAQTIGKSXSHVANXMRLLXLPDEVQSYLVSGELTAXHARAIAAAADPVALAKQIIEGGLSVRETEALARKAPNLSAGKSKGGRPPRVKDTDTQALESDLSSVLGLDVSIDHRGSTGTLTITYATLEQLDDLCNRLTRGI

Variants of: B1
Assay: one-hybrid fitness for binding parS DNA (scaled: cognate 1, non-cognate 0); higher = stronger binding
Details: with parS DNA site
Summary of the method: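 Selection: bacterial one-hybrid in E. coli USO, HIS3 reporter with the site 19 bp from the promoter, 48 hours at 37°C on M9-minus-histidine plus 0.1 mM IPTG and 5 mM 3-AT. Libraries were Caulobacter ParB with four randomised specificity codons, sequenced on Illumina before and after selection. Fitness is the rescaled log change in variant-to-wild-type read ratio, anchored to the cognate and non-cognate sites.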

Variant	one-hybrid fitness for binding parS DNA
SAGC	≤ 0.2
TKLN	≤ 0.2
PAIE	≤ 0.2
GSQV	≤ 0.2
TYSL	≤ 0.2
AAQY	≤ 0.2
EISR	≤ 0.2
PYSR	≤ 0.2
AWGD	≤ 0.2
MRLR	≤ 0.2
NATR	≤ 0.2
CLVA	≤ 0.2
TCHG	≤ 0.2
AWID	0.206
RHYG	0.95
FLHK	≤ 0.2
AICG	≤ 0.2
SSNT	≤ 0.2
LMQD	≤ 0.2
VALN	≤ 0.2
WCKR	≤ 0.2
DTVH	≤ 0.2
PETL	≤ 0.2
MPTV	≤ 0.2

Variant	one-hybrid fitness for binding parS DNA
ARSC	≤ 0.2
PFCR	≤ 0.2
VHIC	≤ 0.2
GRCR	≤ 0.2
WYIC	≤ 0.2
TSNN	≤ 0.2
NMFL	≤ 0.2
LVRS	≤ 0.2
TSYK	≤ 0.2
QPRD	≤ 0.2
WSPS	≤ 0.2
FPRL	≤ 0.2
WHNC	≤ 0.2
SKMR	≤ 0.2
TLDV	≤ 0.2
TGDG	≤ 0.2
GNYG	≤ 0.2
YRYT	≤ 0.2
WMGS	≤ 0.2
TEEF	≤ 0.2
LGLS	≤ 0.2
YPSG	≤ 0.2
IVQS	≤ 0.2
QGLW	≤ 0.2

Variant	one-hybrid fitness for binding parS DNA
LPAM	≤ 0.2
GQMR	≤ 0.2
ANCT	≤ 0.2
KMRH	≤ 0.2
RIRD	≤ 0.2
RSYE	≤ 0.2
TTTS	≤ 0.2
DGSV	≤ 0.2
RHIR	≤ 0.2
TQCS	≤ 0.2
RGDE	≤ 0.2
QEPE	≤ 0.2
IWNF	≤ 0.2
RYNP	≤ 0.2
YSCA	≤ 0.2
TAHE	≤ 0.2
ENIF	≤ 0.2
WIRT	≤ 0.2
NPSY	≤ 0.2
GEAR	≤ 0.2
MRNV	≤ 0.2
VYHS	≤ 0.2
INIP	0.249
SATS	≤ 0.2

Variant	one-hybrid fitness for binding parS DNA
RSVI	≤ 0.2
INNS	≤ 0.2
YLYG	≤ 0.2
SCSP	≤ 0.2
QRQI	≤ 0.2
CLPS	≤ 0.2
TVMT	≤ 0.2
NNMI	≤ 0.2
LTIC	≤ 0.2
CTPG	≤ 0.2
HEKY	≤ 0.2
GVTL	≤ 0.2
KLLK	≤ 0.2
ESFR	≤ 0.2
RMQM	0.351
LISW	≤ 0.2
RVDT	0.741
HNYE	≤ 0.2
ARVD	≤ 0.2
NVGT	≤ 0.2
IEMT	≤ 0.2
EQTS	≤ 0.2
EMAR	≤ 0.2
QMCA	≤ 0.2

Variant	one-hybrid fitness for binding parS DNA
FSAR	≤ 0.2
IYKR	≤ 0.2
MISM	≤ 0.2
GFFV	≤ 0.2
GLPY	≤ 0.2
RELL	≤ 0.2
KPKT	≤ 0.2
DPSV	≤ 0.2
TVGG	≤ 0.2
WNVT	≤ 0.2
HFVG	≤ 0.2
QHMH	≤ 0.2
ECIS	≤ 0.2
PAWN	≤ 0.2
DPIR	≤ 0.2
NQMR	≤ 0.2
HFYR	≤ 0.2
PRLE	≤ 0.2
FSYV	≤ 0.2
KWLT	≤ 0.2
AKNT	≤ 0.2
VGTL	≤ 0.2
ITCD	≤ 0.2
NCCS	≤ 0.2

Variant	one-hybrid fitness for binding parS DNA
RMVV	≤ 0.2
ELVG	≤ 0.2
KLKQ	≤ 0.2
SQGS	≤ 0.2
WVVG	≤ 0.2
GTAE	≤ 0.2
INKS	≤ 0.2
SRAN	≤ 0.2
AKFS	≤ 0.2
LFDP	≤ 0.2
RFRG	0.992
NTNC	≤ 0.2
QHAP	≤ 0.2
QTWQ	≤ 0.2
STKP	≤ 0.2
KNMR	≤ 0.2
FRGV	≤ 0.2
RHLM	0.324
LTES	≤ 0.2
AECT	≤ 0.2
NGWW	≤ 0.2
SGNV	≤ 0.2
ACGT	≤ 0.2
ALVG	≤ 0.2

Variant	one-hybrid fitness for binding parS DNA
PDNR	≤ 0.2
YATR	≤ 0.2
PSSD	≤ 0.2
PWGP	≤ 0.2
RCQV	≤ 0.2
KAQV	≤ 0.2
TPHN	≤ 0.2
AVIC	≤ 0.2
TQES	≤ 0.2
QETT	≤ 0.2
CHRA	≤ 0.2
SQMR	≤ 0.2
PKQM	≤ 0.2
QTQN	≤ 0.2
LTPM	≤ 0.2
RAII	≤ 0.2
LSFN	≤ 0.2
VNKT	≤ 0.2
AMFS	≤ 0.2
GEND	≤ 0.2
HHDA	≤ 0.2
RVLA	0.565
DVAF	≤ 0.2
LQEQ	≤ 0.2

Variant	one-hybrid fitness for binding parS DNA
KRFT	≤ 0.2
CARV	≤ 0.2
ICSG	≤ 0.2
HQMY	≤ 0.2
QDVV	≤ 0.2
PPDG	≤ 0.2
YTHG	≤ 0.2
TTQI	≤ 0.2
YAHR	≤ 0.2
GKMV	≤ 0.2
QNGR	≤ 0.2
CILS	≤ 0.2
GWPT	≤ 0.2
KPNH	≤ 0.2
RILL	≤ 0.2
IRKM	≤ 0.2
GALS	≤ 0.2
RNKY	0.543
AWTS	≤ 0.2
TYEC	≤ 0.2
HYHD	≤ 0.2
LAGA	≤ 0.2
ERLS	≤ 0.2
NPMC	≤ 0.2

Variant	one-hybrid fitness for binding parS DNA
MPMR	≤ 0.2
VRGF	≤ 0.2
AIKL	≤ 0.2
FPNF	≤ 0.2
HFSV	≤ 0.2
CVTN	≤ 0.2
RTVV	≤ 0.2
HSSY	≤ 0.2
NFCN	≤ 0.2
RRNH	0.256
HIPS	≤ 0.2
NLNK	≤ 0.2
FVRC	≤ 0.2
NCNS	≤ 0.2
HYHY	≤ 0.2
PWRD	≤ 0.2
PRSW	≤ 0.2
IKYM	≤ 0.2
VVQG	≤ 0.2
LDGF	≤ 0.2
DACS	≤ 0.2
KDMV	≤ 0.2
APQG	≤ 0.2
SYTR	≤ 0.2

Variant	one-hybrid fitness for binding parS DNA
FLKT	≤ 0.2
TRAG	≤ 0.2
GETA	≤ 0.2
PVTL	≤ 0.2
CIYT	≤ 0.2
ITLT	≤ 0.2
ALAC	≤ 0.2
SKNS	≤ 0.2
YVVS	≤ 0.2
DRPI	≤ 0.2
TSSE	≤ 0.2
AAPT	≤ 0.2
KFVS	≤ 0.2
ITNL	≤ 0.2
GTMT	≤ 0.2
SFAY	≤ 0.2
QLNC	≤ 0.2
YTKD	≤ 0.2
AFFK	≤ 0.2
AQPV	≤ 0.2
RKRQ	≤ 0.2
RSMI	≤ 0.2
LTIF	≤ 0.2
MRSV	≤ 0.2

Variant	one-hybrid fitness for binding parS DNA
QAEW	≤ 0.2
TQVQ	≤ 0.2
VVAV	≤ 0.2
TCKR	≤ 0.2
PWQC	≤ 0.2
KLAR	≤ 0.2
KAYA	≤ 0.2
GANY	≤ 0.2
GHNS	≤ 0.2
KSGN	≤ 0.2
YYGT	≤ 0.2
TGCC	≤ 0.2
VEFT	≤ 0.2
ESFI	≤ 0.2
CNLV	≤ 0.2
IYPC	≤ 0.2
TIKT	≤ 0.2
LRNM	≤ 0.2
HSTL	≤ 0.2
TGTL	≤ 0.2
QCRQ	≤ 0.2
IRND	≤ 0.2
KAGA	≤ 0.2
MVET	≤ 0.2

Variant	one-hybrid fitness for binding parS DNA
IPGG	≤ 0.2
RNEW	≤ 0.2
PVMI	≤ 0.2
LFDQ	≤ 0.2
HMMS	≤ 0.2
ALIS	≤ 0.2
STEK	≤ 0.2
LGDK	≤ 0.2
NAWC	≤ 0.2
AIRH	0.22
RIHQ	≤ 0.2
TPNW	≤ 0.2
QVVP	≤ 0.2
NDCG	≤ 0.2
DESR	≤ 0.2
RTDT	0.802
QSQC	≤ 0.2
REMV	≤ 0.2
KSSQ	≤ 0.2
RFNN	0.411
VAPR	≤ 0.2
LQVK	≤ 0.2
YKRM	≤ 0.2
GSGT	≤ 0.2

Variant	one-hybrid fitness for binding parS DNA
HAGA	≤ 0.2
DWTS	≤ 0.2
WYGC	0.476
CPPP	≤ 0.2
GSIC	≤ 0.2
IEPD	≤ 0.2
RFSV	≤ 0.2
WPHS	≤ 0.2
KPDS	≤ 0.2
PARK	≤ 0.2
QKGG	≤ 0.2
PVGK	≤ 0.2
VKTQ	≤ 0.2
QHRI	≤ 0.2
DRET	≤ 0.2
RTSA	0.591
QALM	≤ 0.2
HETR	≤ 0.2
